From patent US9744222B2, “Peptide for vaccine” (Circassia Limited, priority 2007, dated 2017)
Not every detail of the peptide structures is certain; ends, links or a residue may be inferred. Where a SMILES comes first, the peptide text is derived from it.

Test: Precipitation in aqueous solution of the binding assay
Assay type: physicochemical
Source text: This is a characteristic of promiscuous HLA-DRB1* binders.

[1] = lowest concentration at which an insoluble white precipitate is seen in the aqueous solution of the binding assay
[2] = lowest concentration at which an insoluble white precipitate is seen, value in brackets

SMILES	Precipitation in assay [1]	Precipitation in assay [2]
CC(C)C[C@H](NC(=O)[C@H](CC(=O)O)NC(=O)[C@H](CC(C)C)NC(=O)[C@H](CCC(=O)O)NC(=O)[C@H](CO)NC(=O)[C@@H]1CCCN1C(=O)[C@@H](NC(=O)[C@H](CC(N)=O)NC(=O)[C@@H](NC(=O)[C@H](CO)NC(=O)[C@@H](N)CC(N)=O)C(C)C)C(C)C)C(=O)N[C@@H](CCCNC(=N)N)C(=O)N[C@@H](CO)C(=O)N[C@@H](CC(C)C)C(=O)N[C@@H](CCCNC(=N)N)C(=O)N[C@H](C(=O)O)[C@@H](C)O [HDM17] (H-NSVNVPSELDLRSLRT-OH; N-terminus and C-terminus assumed)	None	–
CC[C@H](C)[C@H](NC(=O)[C@H](CCC(=O)O)NC(=O)[C@H](Cc1c[nH]cn1)NC(=O)[C@H](CC(N)=O)NC(=O)[C@H](C)NC(=O)[C@H](CS)NC(=O)[C@H](CC(=O)O)NC(=O)[C@H](CCCCN)NC(=O)[C@@H](NC(=O)[C@H](CC(=O)O)NC(=O)[C@@H](NC(=O)[C@H](CCC(N)=O)NC(=O)[C@@H](N)CC(=O)O)C(C)C)C(C)C)C(=O)N[C@@H](CCCCN)C(=O)N[C@@H](CCCCN)C(=O)O [HDM19] (H-DQVDVKDCANHEIKK-OH; N-terminus and C-terminus assumed)	None	–
CSCC[C@H](NC(=O)[C@@H]1CCCN1C(=O)[C@H](CC(=O)O)NC(=O)[C@H](Cc1ccccc1)NC(=O)[C@@H](NC(=O)[C@H](CCC(=O)O)NC(=O)[C@H](CO)NC(=O)[C@@H](N)CCCCN)[C@@H](C)O)C(=O)N[C@@H](CCCCN)C(=O)N[C@H](C(=O)N1CCC[C@H]1C(=O)N[C@@H](CC(=O)O)C(=O)N[C@@H](Cc1c[nH]cn1)C(=O)N[C@@H](CO)C(=O)N[C@@H](CC(=O)O)C(=O)O)C(C)C [HDM29B] (H-KSETFDPMKVPDHSD-OH; N-terminus and C-terminus assumed)	10000 µM	(1.7mg/ml)
C[C@@H](O)[C@H](NC(=O)[C@H](CC(=O)O)NC(=O)[C@H](Cc1c[nH]c2ccccc12)NC(=O)[C@H](CO)NC(=O)[C@H](CC(N)=O)NC(=O)[C@@H](N)CCCNC(=N)N)C(=O)N[C@@H](CC(N)=O)C(=O)N[C@@H](Cc1c[nH]c2ccccc12)C(=O)NCC(=O)N[C@@H](CC(=O)O)C(=O)N[C@@H](CC(N)=O)C(=O)NCC(=O)N[C@@H](Cc1ccc(O)cc1)C(=O)NCC(=O)O [HDM16A] (H-RNSWDTNWGDNGYG-OH; N-terminus and C-terminus assumed)	None	–
CSCC[C@H](NC(=O)[C@H](CCC(N)=O)NC(=O)[C@H](CCCCN)NC(=O)[C@H](CC(C)C)NC(=O)CNC(=O)[C@@H](N)CCCNC(=N)N)C(=O)N[C@@H](CCCCN)C(=O)N[C@@H](CCCNC(=N)N)C(=O)N[C@H](C(=O)NCC(=O)N[C@@H](CC(=O)O)C(=O)N[C@@H](C)C(=O)N[C@@H](CC(N)=O)C(=O)O)C(C)C [HDM35] (H-RGLKQMKRVGDAN-OH; N-terminus and C-terminus assumed)	None	–
CC[C@H](C)[C@H](NC(=O)[C@H](CC(N)=O)NC(=O)[C@H](CCCNC(=N)N)NC(=O)[C@H](CCSC)NC(=O)[C@H](C)NC(=O)[C@H](CC(C)C)NC(=O)[C@H](CCC(=O)O)NC(=O)CNC(=O)[C@H](CCCCN)NC(=O)[C@H](Cc1ccccc1)NC(=O)[C@H](CC(=O)O)NC(=O)[C@@H](N)C(C)C)C(=O)N[C@@H](CCC(=O)O)C(=O)O [HDM51] (H-VDFKGELAMRNIE-OH; N-terminus and C-terminus assumed)	10000 µM	(1.5 mg/ml)
CC(C)C[C@H](NC(=O)[C@H](CCC(N)=O)NC(=O)[C@H](Cc1ccccc1)NC(=O)[C@@H]1CCCN1C(=O)[C@@H](N)CCCCN)C(=O)N[C@@H](CCC(=O)O)C(=O)N[C@@H](C)C(=O)N[C@H](C(=O)N[C@@H](Cc1ccccc1)C(=O)N[C@@H](CCC(=O)O)C(=O)N[C@@H](C)C(=O)N[C@@H](CC(N)=O)C(=O)N[C@@H](CCC(N)=O)C(=O)N[C@@H](CC(N)=O)C(=O)N[C@H](C(=O)O)[C@@H](C)O)C(C)C [HDM21] (H-KPFQLEAVFEANQNT-OH; N-terminus and C-terminus assumed)	2000 µM	(0.3 mg/ml)
CC(C)C[C@H](NC(=O)[C@H](CCC(N)=O)NC(=O)[C@H](Cc1ccccc1)NC(=O)[C@@H]1CCCN1C(=O)[C@H](CCCCN)NC(=O)CNC(=O)[C@@H](N)CCCNC(=N)N)C(=O)N[C@@H](CCC(=O)O)C(=O)N[C@@H](C)C(=O)N[C@H](C(=O)N[C@@H](Cc1ccccc1)C(=O)N[C@@H](CCC(=O)O)C(=O)N[C@@H](C)C(=O)N[C@@H](CC(N)=O)C(=O)N[C@@H](CCC(N)=O)C(=O)N[C@@H](CC(N)=O)C(=O)N[C@H](C(=O)O)[C@@H](C)O)C(C)C [HDM21B] (H-RGKPFQLEAVFEANQNT-OH; N-terminus and C-terminus assumed)	10000 µM	–
CC[C@H](C)[C@H](N)C(=O)NCC(=O)N[C@H](C(=O)N[C@@H](CCCCN)C(=O)N[C@@H](CC(=O)O)C(=O)N[C@@H](CC(C)C)C(=O)N[C@@H](CC(=O)O)C(=O)N[C@@H](C)C(=O)N[C@@H](Cc1ccccc1)C(=O)N[C@@H](CCCNC(=N)N)C(=O)N[C@@H](Cc1c[nH]cn1)C(=O)N[C@@H](Cc1ccc(O)cc1)C(=O)N[C@@H](CC(=O)O)C(=O)O)[C@@H](C)CC [HDM11] (H-IGIKDLDAFRHYD-OH; N-terminus and C-terminus assumed)	None	–
CC[C@H](C)[C@H](NC(=O)[C@H](CCCCN)NC(=O)[C@@H](N)CC(N)=O)C(=O)N[C@@H](CCCNC(=N)N)C(=O)N[C@@H](CCC(=O)O)C(=O)N[C@@H](C)C(=O)N[C@@H](CC(C)C)C(=O)N[C@@H](C)C(=O)N[C@@H](CCC(N)=O)C(=O)N[C@H](C(=O)N[C@@H](Cc1c[nH]cn1)C(=O)N[C@@H](CO)C(=O)N[C@@H](C)C(=O)O)[C@@H](C)O [HDM08] (H-NKIREALAQTHSA-OH; N-terminus and C-terminus assumed)	None	–
CC[C@H](C)[C@H](NC(=O)[C@H](C)NC(=O)[C@H](C)NC(=O)[C@@H](NC(=O)[C@H](C)NC(=O)[C@H](CCC(=O)O)NC(=O)[C@H](CC(=O)O)NC(=O)[C@@H](NC(=O)[C@H](C)NC(=O)[C@@H](N)CCCCN)C(C)C)C(C)C)C(=O)N[C@@H](CCC(=O)O)C(=O)N[C@@H](CCCCN)C(=O)N[C@@H](CO)C(=O)O [HDM28] (H-KAVDEAVAAIEKS-OH; N-terminus and C-terminus assumed)	10000 µM	(1.3 mg/ml)
CC(C)[C@H](NC(=O)CNC(=O)[C@H](CC(=O)O)NC(=O)[C@H](CCC(=O)O)NC(=O)[C@H](CO)NC(=O)[C@H](CCCCN)NC(=O)[C@@H](NC(=O)[C@H](CC(N)=O)NC(=O)[C@H](C)N)C(C)C)C(=O)N[C@H](C(=O)N[C@@H](CCCCN)C(=O)N[C@@H](C)C(=O)N[C@@H](Cc1c[nH]cn1)C(=O)O)C(C)C [HDM37] (H-ANVKSEDGVVKAH-OH; N-terminus and C-terminus assumed)	None	–
CC[C@H](C)[C@H](NC(=O)[C@@H](NC(=O)[C@@H](N)CCCNC(=N)N)[C@@H](C)O)C(=O)N[C@H](C(=O)N[C@@H](CCC(N)=O)C(=O)N[C@@H](CCCNC(=N)N)C(=O)N[C@@H](CC(=O)O)C(=O)N[C@@H](CC(N)=O)C(=O)NCC(=O)N[C@@H](Cc1ccc(O)cc1)C(=O)N[C@@H](CCC(N)=O)C(=O)N1CCC[C@H]1C(=O)N[C@@H](CC(N)=O)C(=O)N[C@@H](Cc1ccc(O)cc1)C(=O)O)[C@@H](C)CC [HDM13] (H-RTIIQRDNGYQPNY-OH; N-terminus and C-terminus assumed)	None	–
CC[C@H](C)[C@H](N)C(=O)NCC(=O)N[C@H](C(=O)N[C@H](C(=O)N[C@@H](CC(=O)O)C(=O)N[C@@H](CC(C)C)C(=O)N[C@@H](CCCCN)C(=O)NCC(=O)N[C@@H](CCC(=O)O)C(=O)N[C@@H](CC(C)C)C(=O)N[C@@H](CC(=O)O)C(=O)N[C@@H](CCSC)C(=O)N[C@@H](CCCNC(=N)N)C(=O)N[C@@H](CC(N)=O)C(=O)O)[C@@H](C)CC)[C@@H](C)CC [HDM31] (H-IGIIDLKGELDMRN-OH; N-terminus and C-terminus assumed)	10000 µM	(1.8 mg/ml)
CSCC[C@H](NC(=O)[C@@H]1CCCN1C(=O)[C@H](CC(=O)O)NC(=O)[C@H](Cc1ccccc1)NC(=O)[C@@H](NC(=O)[C@@H](N)CCC(=O)O)[C@@H](C)O)C(=O)N[C@@H](CCCCN)C(=O)N[C@H](C(=O)N1CCC[C@H]1C(=O)N[C@@H](CC(=O)O)C(=O)N[C@@H](Cc1c[nH]cn1)C(=O)N[C@@H](CO)C(=O)N[C@@H](CC(=O)O)C(=O)N[C@@H](CCCCN)C(=O)O)C(C)C [HDM29A] (H-ETFDPMKVPDHSDK-OH; N-terminus and C-terminus assumed)	None	–
CC(C)C[C@H](NC(=O)[C@H](CC(=O)O)NC(=O)[C@@H](N)CCCCN)C(=O)N[C@@H](CC(=O)O)C(=O)N[C@@H](C)C(=O)N[C@@H](Cc1ccccc1)C(=O)N[C@@H](CCCNC(=N)N)C(=O)N[C@@H](Cc1c[nH]cn1)C(=O)N[C@@H](Cc1ccc(O)cc1)C(=O)N[C@@H](CC(=O)O)C(=O)NCC(=O)N[C@@H](CCCNC(=N)N)C(=O)N[C@H](C(=O)O)[C@@H](C)O [HDM12] (H-KDLDAFRHYDGRT-OH; N-terminus and C-terminus assumed)	None	–
CC[C@H](C)[C@H](NC(=O)CNC(=O)[C@@H](NC(=O)[C@@H](N)Cc1c[nH]cn1)[C@@H](C)CC)C(=O)N[C@H](C(=O)N[C@@H](CC(=O)O)C(=O)N[C@@H](CC(C)C)C(=O)N[C@@H](CCCCN)C(=O)NCC(=O)N[C@@H](CCC(=O)O)C(=O)N[C@@H](CC(C)C)C(=O)N[C@@H](CC(=O)O)C(=O)N[C@@H](CCSC)C(=O)N[C@@H](CCCNC(=N)N)C(=O)N[C@@H](CC(N)=O)C(=O)O)[C@@H](C)CC [HDM31A] (H-HIGIIDLKGELDMRN-OH; N-terminus and C-terminus assumed)	10000 µM	(1.7 mg/ml)
CC[C@H](C)[C@H](NC(=O)CNC(=O)[C@@H](NC(=O)[C@H](Cc1c[nH]cn1)NC(=O)[C@H](CCCNC(=N)N)NC(=O)[C@H](CCC(=O)O)NC(=O)[C@H](Cc1ccccc1)NC(=O)[C@H](CCCCN)NC(=O)[C@@H](N)CC(=O)O)[C@@H](C)CC)C(=O)N[C@H](C(=O)N[C@@H](CC(=O)O)C(=O)N[C@@H](CC(C)C)C(=O)N[C@@H](CCCCN)C(=O)O)[C@@H](C)CC [HDM30] (H-DKFERHIGIIDLK-OH; N-terminus and C-terminus assumed)	50000 µM	(7.9 mg/ml)
